The other results are listed elsewhere or left out.
Assays:
Test in all cases: glycan array binding signal (z-score within array); higher = stronger binding
Details in all cases: glycan notation: IUPAC condensed, linker removed; mutation: I144G
Glc(b1-4)Glc = target: Glc(b1-4)Glc
Procedure, shortened: (§1)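 The binding signal is a Z-score computed within each array and averaged over linkers. Arrays of the same protein sequence at different concentrations or buffers were also averaged together. Data originate from 3228 arrays in the Consortium for Functional Glycomics database, kept only where the protein sequence was available.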

Glc(b1-6)Glc = target: Glc(b1-6)Glc
Procedure, shortened: as §1

GlcA(b1-3)Gal = target: GlcA(b1-3)Gal
Procedure, shortened: as §1

GlcA(b1-3)GlcNAc = target: GlcA(b1-3)GlcNAc
Procedure, shortened: as §1

GlcA(b1-6)Gal = target: GlcA(b1-6)Gal
Procedure, shortened: as §1

[1] = target: GlcA3S(b1-3)Gal(b1-4)GlcNAc(b1-2)Man
Procedure, shortened: as §1

[2] = target: GlcA3S(b1-3)Gal(b1-4)GlcNAc(b1-3)Gal(b1-4)Glc
Procedure, shortened: as §1

[3] = target: GlcNAc(a1-3)Gal(b1-4)GlcNAc
Procedure, shortened: as §1

[4] = target: GlcNAc(a1-4)Gal(b1-3)GlcNAc
Procedure, shortened: as §1

[5] = target: GlcNAc(a1-4)Gal(b1-4)GalNAc
Procedure, shortened: as §1

[6] = target: GlcNAc(a1-4)Gal(b1-4)GlcNAc
Procedure, shortened: as §1

[7] = target: GlcNAc(a1-4)Gal(b1-4)GlcNAc(b1-3)Gal(b1-4)Glc
Procedure, shortened: as §1

[8] = target: GlcNAc(a1-4)Gal(b1-4)GlcNAc(b1-3)Gal(b1-4)GlcNAc
Procedure, shortened: as §1

[9] = target: GlcNAc(a1-4)Gal(b1-4)GlcNAc(b1-3)Gal(b1-4)GlcNAc(b1-3)Gal(b1-4)GlcNAc
Procedure, shortened: as §1

[10] = target: GlcNAc(a1-4)Gal(b1-4)GlcNAc(b1-3)Gal(b1-4)[Fuc(a1-3)]GlcNAc(b1-3)Gal(b1-4)[Fuc(a1-3)]GlcNAc
Procedure, shortened: as §1

[11] = target: GlcNAc(a1-6)Gal(b1-4)GlcNAc
Procedure, shortened: as §1

[12] = target: GlcNAc(b1-2)Gal(b1-3)GalNAc
Procedure, shortened: as §1

[13] = target: GlcNAc(b1-2)Man(a1-3)[GlcNAc(b1-2)Man(a1-6)]Man(b1-4)GlcNAc(b1-4)GlcNAc
Procedure, shortened: as §1

[14] = target: GlcNAc(b1-2)Man(a1-3)[GlcNAc(b1-2)Man(a1-6)]Man(b1-4)GlcNAc(b1-4)[Fuc(a1-6)]GlcNAc
Procedure, shortened: as §1

[15] = target: GlcNAc(b1-2)Man(a1-3)[GlcNAc(b1-4)][GlcNAc(b1-2)Man(a1-6)]Man(b1-4)GlcNAc(b1-4)GlcNAc
Procedure, shortened: as §1

[16] = target: GlcNAc(b1-2)Man(a1-3)[GlcNAc(b1-4)][GlcNAc(b1-2)Man(a1-6)]Man(b1-4)GlcNAc(b1-4)[Fuc(a1-6)]GlcNAc
Procedure, shortened: as §1

[17] = target: GlcNAc(b1-2)[GlcNAc(b1-4)]Man(a1-3)[GlcNAc(b1-2)Man(a1-6)]Man(b1-4)GlcNAc(b1-4)GlcNAc
Procedure, shortened: as §1

[18] = target: GlcNAc(b1-2)[GlcNAc(b1-4)]Man(a1-3)[GlcNAc(b1-4)][GlcNAc(b1-2)Man(a1-6)]Man(b1-4)GlcNAc(b1-4)GlcNAc
Procedure, shortened: as §1

[19] = target: GlcNAc(b1-2)[GlcNAc(b1-4)]Man(a1-3)[GlcNAc(b1-4)][GlcNAc(b1-2)[GlcNAc(b1-6)]Man(a1-6)]Man(b1-4)GlcNAc(b1-4)GlcNAc
Procedure, shortened: as §1

[20] = target: GlcNAc(b1-2)[GlcNAc(b1-4)]Man(a1-3)[GlcNAc(b1-4)][GlcNAc(b1-2)[GlcNAc(b1-6)]Man(a1-6)]Man(b1-4)GlcNAc(b1-4)[Fuc(a1-6)]GlcNAc
Procedure, shortened: as §1

[21] = target: GlcNAc(b1-2)[GlcNAc(b1-6)]Man(a1-6)[GlcNAc(b1-2)Man(a1-3)]Man(b1-4)GlcNAc(b1-4)GlcNAc
Procedure, shortened: as §1

[22] = target: GlcNAc(b1-2)[GlcNAc(b1-6)]Man(a1-6)[GlcNAc(b1-2)Man(a1-3)]Man(b1-4)GlcNAc(b1-4)[Fuc(a1-6)]GlcNAc
Procedure, shortened: as §1

[23] = target: GlcNAc(b1-2)[GlcNAc(b1-6)]Man(a1-6)[GlcNAc(b1-4)][GlcNAc(b1-2)Man(a1-3)]Man(b1-4)GlcNAc(b1-4)GlcNAc
Procedure, shortened: as §1

GlcNAc(b1-3)Fuc = target: GlcNAc(b1-3)Fuc
Procedure, shortened: as §1

GlcNAc(b1-3)Gal = target: GlcNAc(b1-3)Gal
Procedure, shortened: as §1

[24] = target: GlcNAc(b1-3)Gal(b1-3)GalNAc
Procedure, shortened: as §1

GlcNAc(b1-3)Gal(b1-4)Glc = target: GlcNAc(b1-3)Gal(b1-4)Glc
Procedure, shortened: as §1

[25] = target: GlcNAc(b1-3)Gal(b1-4)GlcNAc
Procedure, shortened: as §1

[26] = target: GlcNAc(b1-3)Gal(b1-4)GlcNAc(b1-2)Man(a1-3)[GlcNAc(b1-3)Gal(b1-4)GlcNAc(b1-2)Man(a1-6)]Man(b1-4)GlcNAc(b1-4)GlcNAc
Procedure, shortened: as §1

[27] = target: GlcNAc(b1-3)Gal(b1-4)GlcNAc(b1-2)Man(a1-3)[GlcNAc(b1-3)Gal(b1-4)GlcNAc(b1-2)Man(a1-6)]Man(b1-4)GlcNAc(b1-4)[Fuc(a1-6)]GlcNAc
Procedure, shortened: as §1

[28] = target: GlcNAc(b1-3)Gal(b1-4)GlcNAc(b1-2)[GlcNAc(b1-3)Gal(b1-4)GlcNAc(b1-6)]Man(a1-6)[GlcNAc(b1-3)Gal(b1-4)GlcNAc(b1-2)Man(a1-3)]Man(b1-4)GlcNAc(b1-4)GlcNAc
Procedure, shortened: as §1

[29] = target: GlcNAc(b1-3)Gal(b1-4)GlcNAc(b1-3)Gal(b1-4)GlcNAc
Procedure, shortened: as §1

[30] = target: GlcNAc(b1-3)Gal(b1-4)GlcNAc(b1-3)Gal(b1-4)GlcNAc(b1-2)Man(a1-3)[GlcNAc(b1-3)Gal(b1-4)GlcNAc(b1-3)Gal(b1-4)GlcNAc(b1-2)Man(a1-6)]Man(b1-4)GlcNAc(b1-4)GlcNAc
Procedure, shortened: as §1

[31] = target: GlcNAc(b1-3)Gal(b1-4)GlcNAc(b1-3)Gal(b1-4)GlcNAc(b1-2)Man(a1-3)[GlcNAc(b1-3)Gal(b1-4)GlcNAc(b1-3)Gal(b1-4)GlcNAc(b1-2)Man(a1-6)]Man(b1-4)GlcNAc(b1-4)[Fuc(a1-6)]GlcNAc
Procedure, shortened: as §1

[32] = target: GlcNAc(b1-3)Gal(b1-4)GlcNAc(b1-3)Gal(b1-4)GlcNAc(b1-2)[GlcNAc(b1-3)Gal(b1-4)GlcNAc(b1-3)Gal(b1-4)GlcNAc(b1-6)]Man(a1-6)[GlcNAc(b1-3)Gal(b1-4)GlcNAc(b1-3)Gal(b1-4)GlcNAc(b1-2)Man(a1-3)]Man(b1-4)GlcNAc(b1-4)[Fuc(a1-6)]GlcNAc
Procedure, shortened: as §1

[33] = target: GlcNAc(b1-3)Gal(b1-4)GlcNAc(b1-3)Gal(b1-4)GlcNAc(b1-3)Gal(b1-4)GlcNAc(b1-2)Man(a1-3)[GlcNAc(b1-3)Gal(b1-4)GlcNAc(b1-3)Gal(b1-4)GlcNAc(b1-3)Gal(b1-4)GlcNAc(b1-2)Man(a1-6)]Man(b1-4)GlcNAc(b1-4)GlcNAc
Procedure, shortened: as §1

[34] = target: GlcNAc(b1-3)Gal(b1-4)GlcNAc(b1-3)Gal(b1-4)GlcNAc(b1-3)Gal(b1-4)GlcNAc(b1-2)Man(a1-3)[GlcNAc(b1-3)Gal(b1-4)GlcNAc(b1-3)Gal(b1-4)GlcNAc(b1-3)Gal(b1-4)GlcNAc(b1-2)Man(a1-6)]Man(b1-4)GlcNAc(b1-4)[Fuc(a1-6)]GlcNAc
Procedure, shortened: as §1

[35] = target: GlcNAc(b1-3)Gal(b1-4)GlcNAc(b1-3)Gal(b1-4)GlcNAc(b1-3)Gal(b1-4)GlcNAc(b1-2)[GlcNAc(b1-3)Gal(b1-4)GlcNAc(b1-3)Gal(b1-4)GlcNAc(b1-3)Gal(b1-4)GlcNAc(b1-6)]Man(a1-6)[GlcNAc(b1-3)Gal(b1-4)GlcNAc(b1-3)Gal(b1-4)GlcNAc(b1-3)Gal(b1-4)GlcNAc(b1-2)Man(a1-3)]Man(b1-4)GlcNAc(b1-4)[Fuc(a1-6)]GlcNAc
Procedure, shortened: as §1

[36] = target: GlcNAc(b1-3)Gal(b1-4)GlcNAc(b1-3)Gal(b1-4)GlcNAc(b1-3)Gal(b1-4)GlcNAc(b1-3)Gal(b1-4)GlcNAc(b1-2)Man(a1-3)[GlcNAc(b1-3)Gal(b1-4)GlcNAc(b1-3)Gal(b1-4)GlcNAc(b1-3)Gal(b1-4)GlcNAc(b1-3)Gal(b1-4)GlcNAc(b1-2)Man(a1-6)]Man(b1-4)GlcNAc(b1-4)GlcNAc
Procedure, shortened: as §1

[37] = target: GlcNAc(b1-3)Gal(b1-4)GlcNAc(b1-3)Gal(b1-4)GlcNAc(b1-3)Gal(b1-4)GlcNAc(b1-3)Gal(b1-4)GlcNAc(b1-2)Man(a1-3)[GlcNAc(b1-3)Gal(b1-4)GlcNAc(b1-3)Gal(b1-4)GlcNAc(b1-3)Gal(b1-4)GlcNAc(b1-3)Gal(b1-4)GlcNAc(b1-2)Man(a1-6)]Man(b1-4)GlcNAc(b1-4)[Fuc(a1-6)]GlcNAc
Procedure, shortened: as §1

B1: rAAL-I144G (Agrocybe aegerita), Q6WY08 (protein)
chain: MQGVNIYNISAGTSVDLAAPVTTGDIVTFFSSALNLNAGAGNPNNTTLNLFAENGAYLLHIAFRLQENVIIFNSRQPDGPWLVEQRVSDVANQFAGIDGKAMVTVFDHGDKYQVVINEKTVIQYTKQISGLTLSLSYNATEETSGFSTVVEAVTYTGLALEHHHHHH
glycan array binding signal (z-score) (Glc(b1-4)Glc): -0.143 | glycan array binding signal (z-score) (Glc(b1-6)Glc): -0.183 | glycan array binding signal (z-score) (GlcA(b1-3)Gal): -0.104 | glycan array binding signal (z-score) (GlcA(b1-3)GlcNAc): -0.117 | glycan array binding signal (z-score) (GlcA(b1-6)Gal): -0.173 | glycan array binding signal (z-score) [1]: 11.8 | glycan array binding signal (z-score) [2]: 9.46 | glycan array binding signal (z-score) [3]: -0.063 | glycan array binding signal (z-score) [4]: -0.157 | glycan array binding signal (z-score) [5]: -0.147 | glycan array binding signal (z-score) [6]: -0.123 | glycan array binding signal (z-score) [7]: -0.082 | glycan array binding signal (z-score) [8]: -0.061 | glycan array binding signal (z-score) [9]: -0.204 | glycan array binding signal (z-score) [10]: -0.118 | glycan array binding signal (z-score) [11]: -0.19 | glycan array binding signal (z-score) [12]: -0.178 | glycan array binding signal (z-score) [13]: -0.093 | glycan array binding signal (z-score) [14]: -0.062 | glycan array binding signal (z-score) [15]: -0.176 | glycan array binding signal (z-score) [16]: -0.15 | glycan array binding signal (z-score) [17]: -0.124 | glycan array binding signal (z-score) [18]: -0.038 | glycan array binding signal (z-score) [19]: -0.163 | glycan array binding signal (z-score) [20]: -0.103 | glycan array binding signal (z-score) [21]: -0.095 | glycan array binding signal (z-score) [22]: -0.035 | glycan array binding signal (z-score) [23]: -0.2 | glycan array binding signal (z-score) (GlcNAc(b1-3)Fuc): -0.027 | glycan array binding signal (z-score) (GlcNAc(b1-3)Gal): -0.162 | glycan array binding signal (z-score) [24]: -0.103 | glycan array binding signal (z-score) (GlcNAc(b1-3)Gal(b1-4)Glc): -0.03 | glycan array binding signal (z-score) [25]: -0.045 | glycan array binding signal (z-score) [26]: -0.093 | glycan array binding signal (z-score) [27]: -0.082 | glycan array binding signal (z-score) [28]: -0.075 | glycan array binding signal (z-score) [29]: -0.156 | glycan array binding signal (z-score) [30]: -0.059 | glycan array binding signal (z-score) [31]: -0.019 | glycan array binding signal (z-score) [32]: 0.072 | glycan array binding signal (z-score) [33]: -0.137 | glycan array binding signal (z-score) [34]: -0.003 | glycan array binding signal (z-score) [35]: 0.072 | glycan array binding signal (z-score) [36]: -0.098 | glycan array binding signal (z-score) [37]: -0.13
